Results taken from the BET-seq Pho4 binding data (Le et al. 2018).
The other results are listed elsewhere or left out. Values were computed here from the reads of four pooled replicates and scatter widely.

The sequences below were run against T1, Pho4 (S. cerevisiae) (UniProt P07270) (assay: relative binding free energy (BET-seq); higher = weaker binding). Conditions: reference: library average.
T1 sequence: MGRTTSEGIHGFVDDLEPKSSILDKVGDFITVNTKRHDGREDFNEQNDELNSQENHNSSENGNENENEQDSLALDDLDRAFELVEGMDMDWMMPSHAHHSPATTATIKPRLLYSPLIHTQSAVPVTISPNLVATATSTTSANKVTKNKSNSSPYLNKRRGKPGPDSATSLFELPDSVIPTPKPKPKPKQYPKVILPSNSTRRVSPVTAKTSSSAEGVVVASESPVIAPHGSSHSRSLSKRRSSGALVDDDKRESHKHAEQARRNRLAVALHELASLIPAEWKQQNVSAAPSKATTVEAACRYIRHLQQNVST

| Sequence | relative binding free energy [kcal/mol] |
| --- | --- |
| TTGAGCACGTGCGTAG | -0.18 |
| TAATTCACGTGATGGT | 0.35 |
| TGCAGCACGTGGGAGG | -0.2 |
| GGCTTCACGTGTTTAG | 0.18 |
| AAATGCACGTGATAGG | -0.02 |
| TCACGCACGTGAGGGT | 0.16 |
| AAGTTCACGTGTATTT | 0.44 |
| TTGTACACGTGGATGG | 0 |
| AGCGGCACGTGCGAGG | 0.05 |
| AATGTCACGTGAATTG | 0.13 |
| GTGTGCACGTGTGAGC | 0.07 |
| GTACTCACGTGAAGGT | 0.32 |
| GTTCACACGTGATTAG | 0.38 |
| GTGGTCACGTGCATAG | 0.05 |
| AGATTCACGTGTTTGT | 0.25 |
| TGGGACACGTGTCGGA | 0.05 |
| AATTTCACGTGCAGTT | 0.2 |
| GGTTGCACGTGAGGGC | 0.31 |
| GACAGCACGTGTTAGT | 0.12 |
| AGTACCACGTGGGGAG | -0.21 |
| GATAACACGTGGTAGG | 0.05 |
| TAGTGCACGTGGCTGG | 0 |
| GGGATCACGTGGTTGT | 0.15 |

| Sequence | relative binding free energy [kcal/mol] |
| --- | --- |
| GGTCGCACGTGAAAGG | 0.09 |
| CGTGTCACGTGGATAT | 0.1 |
| GTATCCACGTGGGTGA | 0.01 |
| CTTTACACGTGAGAGG | 0.39 |
| ACAGTCACGTGTTATG | 0.01 |
| ATATACACGTGGTTTG | -0.11 |
| GGGTCCACGTGGTAGA | -0.03 |
| GAGGACACGTGACGGG | 0.14 |
| TGCTGCACGTGATGTG | 0.06 |
| CGTTTCACGTGGTGGA | 0.39 |
| GATGACACGTGGTGTA | -0.06 |
| GTTGACACGTGGTTCT | -0.05 |
| TTGATCACGTGGGAGG | 0.07 |
| TGGTACACGTGGATAG | 0.09 |
| GGGCACACGTGTAGTT | 0.19 |
| GGTGGCACGTGTCGGG | 0 |
| AGATACACGTGGTAGA | -0.03 |
| ATAATCACGTGAGCGG | 0.37 |
| GATGGCACGTGTGGAT | -0.13 |
| GGGGACACGTGTGCGC | 0.05 |
| ATATGCACGTGATTGA | -0.02 |
| TTAGACACGTGAATAG | 0.2 |
| ATGGTCACGTGGAGCG | 0.14 |

| Sequence | relative binding free energy [kcal/mol] |
| --- | --- |
| TGAATCACGTGGTTTG | 0.16 |
| GGAGGCACGTGATGTC | -0.03 |
| GGGCTCACGTGGGGTC | 0.19 |
| AGTGGCACGTGGTGCA | -0.1 |
| ACGGTCACGTGTGGCT | 0.09 |
| TTTTGCACGTGACTAT | 0.04 |
| TTCGTCACGTGTTTTA | 0.03 |
| GTGCTCACGTGATGGT | 0.32 |
| ACTTGCACGTGATTTT | 0.05 |
| TAGATCACGTGTATTT | 0.08 |
| CTGTTCACGTGGAAGT | 0.34 |
| ATGTTCACGTGGCCGG | 0.09 |
| GGGTGCACGTGGAATT | -0.01 |
| AGGTTCACGTGAGAAT | 0.35 |
| TCGAGCACGTGAGGGC | 0.25 |
| GTTGGCACGTGTGCTA | -0.02 |
| CTCGTCACGTGTAGGG | -0.04 |
| CGGCACACGTGGGATG | 0.02 |
| TAACGCACGTGGAGGG | -0.03 |
| ATTGACACGTGTGAAT | 0.08 |
| GTGGGCACGTGCATAT | -0.15 |
| TAGTACACGTGGGAGA | 0.01 |
| CTTGGCACGTGGAACG | 0.03 |

| Sequence | relative binding free energy [kcal/mol] |
| --- | --- |
| CTATACACGTGGGGTT | -0.16 |
| AGTTTCACGTGAAAAT | 0.43 |
| TCGGTCACGTGAAGGA | 0.18 |
| TTATTCACGTGAGTCT | 0.48 |
| AAGTTCACGTGTTAGT | 0.27 |
| AGGATCACGTGAAGGC | 0.37 |
| TACGGCACGTGAGGTC | 0.17 |
| TAGCGCACGTGTGTAG | -0.08 |
| GGTGGCACGTGAAGGA | 0.19 |
| CGTTTCACGTGGGGCA | 0.15 |
| ATTGACACGTGGGAGT | -0.2 |
| ATGCTCACGTGGGAGG | 0.17 |
| TGAAGCACGTGTTGTT | -0.07 |
| TTTCGCACGTGTGGTT | -0.03 |
| AATGACACGTGTCTGG | 0.11 |
| GGGGACACGTGGGTTT | -0.06 |
| TGCTGCACGTGTTGGA | 0 |
| ACTATCACGTGGTAGT | 0.06 |
| AGTTACACGTGCCTGG | 0.13 |
| GTGTACACGTGTTTAT | -0.07 |
| GTAGACACGTGCGTAT | 0.05 |
| TATTACACGTGTAGAT | 0.33 |
| TGCGTCACGTGTTTAT | 0.14 |

| Sequence | relative binding free energy [kcal/mol] |
| --- | --- |
| CGGCTCACGTGGTTTG | 0.13 |
| GCTAGCACGTGGGGGC | -0.17 |
| AGTGCCACGTGGTGGT | -0.12 |
| AGGCGCACGTGTGATG | -0.14 |
| AATGTCACGTGGGTTT | 0.13 |
| GGAGACACGTGGGGCA | -0.19 |
| TATGACACGTGATGCG | 0.17 |
| GGCGGCACGTGCTTTG | -0.11 |
| TCGGTCACGTGGTTAT | 0.13 |
| GGGGGCACGTGTCTGC | -0.12 |
| TAATTCACGTGTAAAA | 0.34 |
| TAGGACACGTGTGCGA | -0.05 |
| GGGTACACGTGGTTGT | 0.14 |
| TGCTGCACGTGTGGTT | 0.11 |
| GTATACACGTGGTGAG | -0.02 |
| ATGACCACGTGTTTTT | 0.04 |
| GTACGCACGTGGAGTG | -0.05 |
| TGAATCACGTGTAGTT | 0.28 |
| TGTTGCACGTGTACAT | 0 |
| GTGTCCACGTGAGTTT | 0.36 |
| TGAGTCACGTGGGCGT | 0.07 |
| TAGATCACGTGCTGTA | 0.09 |
| TAGATCACGTGTGTAA | 0.18 |
